The values below come from US6903111B2 (priority 2001, dated 2005).

The test system of assay [1] is Normal Rats. Nature of the assay: animal or person. The conditions noted are these: Rattus norvegicus, po, 1 h, 18 hr fasted rats, 1 hr after oral administration; for inhibition in vivo at 10 mg/kg: read-out: Reduction percent (%) of rised plasma glucose level relative to vehicle-treated group, Dose 10 mg/kg, orally, simultaneously with glucose solution (2 g/kg).
Assay [2] deals with Normal Rats. The conditions noted are these: Dose 10 mg/kg, orally, simultaneously with glucose solution (2 g/kg); 18 hr fasted rats; 1 hr after oral administration.

As for `O=C(O)[C@H](CC(=O)N1CC2CCC1CC2)Cc1ccccc1` [Compound 1, (2S)-2-benzyl-4-(isoquinuclidin-2-yl)-4-oxo-butanoic acid], the inhibition in vivo at 10 mg/kg in the assay with Normal Rats [1] was found to be 35%.
Consider `O=C([O-])[C@H](CC(=O)N1CC2CCC1CC2)Cc1ccccc1.[Na+]` [Compound 11], for which the “Reduction percent (%) of rised plasma glucose level relative to vehicle-treated group” value with Normal Rats [2] is 43%.
Consider `O=C(OC1CCCCC1)[C@H](CC(=O)N1CC2CCC1CC2)Cc1ccccc1` [Compound 14], for which the inhibition in vivo at 30 mg/kg with Normal Rats [1] (read-out: Reduction percent (%) of rised plasma glucose level relative to vehicle-treated group, Dose 30 mg/kg, orally, simultaneously with glucose solution (2 g/kg)) worked out at 32%.
Turning to `O=C(Oc1ccccc1)[C@H](CC(=O)N1CC2CCC1CC2)Cc1ccccc1` [Compound 15, (2S)-2-benzyl-4-(isoquinuclidin-2-yl)-4-oxo-butanoic acid phenylester], the inhibition in vivo at 10 mg/kg in the assay on Normal Rats [1] was determined as 35%.
Same read-out and setting: in the case of `COc1ccc(OC(=O)[C@H](CC(=O)N2CC3CCC2CC3)Cc2ccccc2)cc1` [Compound 17, p-methoxyphenyl (2S)-2-benzyl-4-(isoquinuclidine-2-yl)-4-oxo-butylate] it was 48%; in that of `O=C(Oc1ccc(O)cc1)[C@H](CC(=O)N1CC2CCC1CC2)Cc1ccccc1` [Compound 18, p-hydroxy phenyl (2S)-2-benzyl-4-(isoquinuclidine-2-yl)-4-oxo-butyrate], 82%.
Still for that read-out and setting: in the case of `CSCOC(C(=O)O)[C@H](CC(=O)N1CC2CCC1CC2)Cc1ccccc1` (stereo partly drawn) [Compound 45] it was 59%; in that of `COC(=O)c1ccccc1OC(=O)[C@H](CC(=O)N1CC2CCC1CC2)Cc1ccccc1` [Compound 46, o-methoxycarbonylphenyl (2S)-2-benzyl-4-(isoquinuclidine-2-yl)-4-oxo-butanoate], 88%.
For `O=C(O)[C@H](CCN1CC2CCC1CC2)Cc1ccccc1` [Compound 47], the inhibition in vivo at 10 mg/kg with Normal Rats [1] came to 26%.
Regarding `CCOC(=O)c1ccccc1OC(=O)[C@H](CC(=O)N1CC2CCC1CC2)Cc1ccccc1` [Compound 48, o-ethoxycarbonylphenyl (2S)-2-benzyl-4-(isoquinuclidine-2-yl)-4-oxo-butanoate], the inhibition in vivo at 10 mg/kg in the assay with Normal Rats [1] turned out to be 55%.
The same measure, in the same setting: in the case of `COC(=O)c1ccccc1SC(=O)[C@H](CC(=O)N1CC2CCC1CC2)Cc1ccccc1` [Compound 50, S-(o-methoxycarbonyl)phenyl (2S)-2-benzyl-4-(isoquinuclidine-2-yl)-4-oxothiobutanoate] it was 66%; in that of `CN(c1c(O)c(=O)c1=O)[C@H](CC(=O)N1CC2CCC1CC2)Cc1ccccc1` [Compound 52, N-(3-hydroxy-3-cyclobutene-1,2-dione-4-yl)-N-methyl-(1S)-[2-(isoquinuclidin-2-yl)-2-oxo-ethyl]-phenyl ethylamine], 31%.
